# Source: paper PMC13083723 (Patterns, 2026)
# The campaign covered roughly 5,400 compounds. About 190 (3.5%) showed an effect of 50% or more. The list shows a part of the results.
# System: Vero-E6
# Assay: primary screen, phospholipidosis by LipidTOX staining; higher = more effect of the substance
# Conditions: 10 µM
# Summary of the method: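 Drug-induced phospholipidosis detected with HCS LipidTOX Red reagent in Vero-E6 cells. Compounds tested at 10 μM, with amiodarone (10 μM) as positive control and DMSO (0.1 v/v %) as vehicle.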
row,SMILES,result_ITMP [%]
1,COc1ccc2c(c1)C(=O)N(CCc1ccc(S(=O)(=O)NC(=O)NC3CCCCC3)cc1)C(=O)C2(C)C,-8.43
2,C=CCc1ccc(O)c(-c2cc(CC=C)ccc2O)c1,-1.71
3,CC(=N)NCc1cccc(CN)c1,-0.73
4,NS(=O)(=O)Cc1noc2ccccc12,-5.73
5,CN(C)CCN(Cc1ccc(Cl)cc1)c1ccccn1,32.5
6,C[C@H](NC[C@H](O)CP(=O)(O)Cc1ccccc1)c1ccc(Cl)c(Cl)c1,-0.85
7,CC(=O)c1cc([N+](=O)[O-])c(Sc2ccc(F)cc2F)s1,-1.5
8,O=C1NC(=O)c2cc(Nc3ccc(F)cc3)c(Nc3ccc(F)cc3)cc21,0.32
9,COC(=O)/C=C/C(=O)N[C@@H]1CC[C@@]2(O)C3Cc4ccc(O)c5c4[C@@]2(CCN3CC2CC2)[C@H]1O5,-2
10,CN[C@@H]1C(O)[C@@H](O[C@@H]2[C@@H](O)[C@H](O[C@H]3OC(CN)=CC[C@H]3N)[C@@H](N)C[C@H]2N)OC[C@]1(C)O (stereo partly shown),-3.24
11,Cc1c(NC(=O)OC[C@@H]2COCCN2)cn2ncnc(Nc3ccc4c(cnn4Cc4cccc(F)c4)c3)c12,42.9
12,O=C(c1ccc(-c2ccc(Cl)cc2)o1)N(Cc1ccccn1)c1ccc(N2CCNCC2)cc1,104
13,Cc1ccc2nc(NCCN)c3ncc(C)n3c2c1,38.8
14,CC(C)(C)c1cc(C=C(C#N)C#N)cc(C(C)(C)C)c1O,0.84
15,CCCCCCOC(=O)/N=C(/N)c1ccc(NCc2nc3cc(C(=O)N(CCC(=O)OCC)c4ccccn4)ccc3n2C)cc1,4.53
16,CC(C[N+](C)(C)C)OC(N)=O (stereo not shown),-0.34
17,CN1C2C[C@H](OC(=O)[C@H](CO)c3ccccc3)C[C@H]1[C@H]1OC21 (stereo partly shown),-1.02
18,O=C(O)c1nn(Cc2ccc(Cl)cc2Cl)c2ccccc12,0.38
19,Cc1cc(C(C#N)c2ccc(Cl)cc2)c(Cl)cc1NC(=O)c1cc(I)cc(I)c1O (stereo not shown),5.61
20,COc1ccc2c(c1OC)C(=O)O[C@@H]2[C@H]1c2cc3c(cc2CCN1C)OCO3,-2.56
21,O=C(O)c1cc2cccc([N+](=O)[O-])c2[nH]1,-2.26
22,Oc1cc2c(cc1O)C(Cc1cccc3ccccc13)NCC2 (stereo not shown),10.9

row,SMILES,result_ITMP [%]
1,CCOC(=O)c1c[nH]cn1,0.53
2,COc1ccc(CCc2nc3cc(-c4c(C)noc4C)ccc3n2C[C@H](C)N2CCOCC2)cc1Cl,20
3,O=C1CCCCCCCCCCCCCCO1,-5.89
4,Clc1ccc(CCCOCCCN2CCCCC2)cc1,27.9
5,CNCc1ccc(-c2[nH]c3cc(F)cc4c3c2CCNC4=O)cc1,13.3
6,COc1cc(N)c(Cl)cc1C(=O)CCC1CCN(CCNS(C)(=O)=O)CC1,1.82
7,NCCc1cc[nH]n1,-0.16
8,CCCNC(C)C(=O)Nc1c(C)csc1C(=O)OC (stereo not shown),4.34
9,COc1cccc(N(C)C(=S)Oc2ccc3c(c2)CCCC3)n1,-7.28
10,CCNC(=O)c1noc(-c2cc(C(C)C)c(O)cc2O)c1-c1ccc(CN2CCOCC2)cc1,-0.23
11,Cc1ccc(-c2ncn(-c3ccc(Nc4nccc(-c5cccc(N6CCOCC6)c5)n4)cc3)n2)cn1,5.71
12,CCOC(=O)Nc1ccc(NCc2ccc(F)cc2)cc1N,-0.92
13,C[C@H](Nc1cc(-c2cnn(C)c2)cc(Nc2cnccn2)n1)c1ccc(F)cc1,3.49
14,CCn1c(-c2nonc2N)nc2cncc(C(=O)N3CC[C@H](N)C3)c21,-0.58
15,Nc1ccc(S(=O)(=O)[N-]c2cnc3ccccc3n2)cc1,-3.26
16,CC(C)Cn1cnc2c(N)nc3ccccc3c21,1.88
17,NC/C(=C/F)CCc1ccc(F)cc1,6.45
18,Cc1ccc(-c2ccc(C)cn2)nc1,-8.2
19,Clc1cccc(Nc2nnc(-c3ccccc3)c3ccccc23)c1,-0.95
20,COc1c(Nc2ccc(S(C)(=O)=O)nc2C)ncnc1OC1CCN(C(=O)OC(C)C)CC1,-1.74
21,Oc1ccc(C2(c3ccccc3F)CCC(F)(F)CC2)cc1,0.05
22,NC(=O)N1c2ccccc2CC(=O)c2ccccc21,11.4

row,SMILES,result_ITMP [%]
1,CN[C@H](CNC(=O)N1CCC[C@@H]([C@@H](OCCNC(=O)OC)c2cccc(Cl)c2)C1)C[C@H]1CCCOC1,0.92
2,O=C(O)CCC(=O)O,-5.74
3,NC1=NCC2c3ccccc3Cc3ccccc3N12 (stereo not shown),0.56
4,CON(C)C(=O)N1N=C(c2cc(F)ccc2F)S[C@@]1(CCCN)c1ccccc1,27.9
5,Cc1nc2ccc(NC(=O)Nc3ccnc4cccnc34)cc2o1,-1.47
6,Cn1ncnc1COc1nn2c(-c3cc(F)ccc3F)nnc2cc1C(C)(C)C,-6.83
7,CNC(=O)c1ccc2cc(C3(O)CCn4cncc43)ccc2c1 (stereo not shown),-0.4
8,CSCCC(N)C(=O)O (stereo not shown),-3.06
9,OCc1cncc(F)c1,-3.01
10,Oc1nc(-c2ccc(C(F)(F)F)cc2)nc2c1CSCC2,-1.76
11,COc1cc2c(cc1OC)-c1c/c(=N\c3c(C)cc(C)cc3C)n(C)c(=O)n1CC2,-1.31
12,Cc1cccc(Nc2ccncc2S(=O)(=O)NC(=O)NC(C)C)c1,2.56
13,CS(=O)(=O)OC[C@H](O)[C@@H](O)COS(C)(=O)=O,0.79
14,Cn1nnc(-c2ccc(-c3ccc(N4C[C@H](CO)OC4=O)cc3F)cn2)n1,-1.43
15,Cc1ccc(Cl)cc1N(CC(=O)Nc1c(F)cccc1F)S(C)(=O)=O,8.33
16,CCOC(=O)[C@@H](N)Cc1ccc(O)c(O)c1,-3.83
17,O=C1Nc2ccc(I)cc2/C1=C/c1cc(Br)c(O)c(Br)c1,-2.07
18,CNC(=O)c1cccc2cc(Oc3ccnc4cc(OCC5(N)CC5)c(OC)cc34)ccc12,24.5
19,CC[N+](CC)(CC(=O)Nc1c(C)cccc1C)Cc1ccccc1,3.81
20,COc1cc(NS(=O)(=O)c2ccc(N)cc2)nc(OC)n1,-3.28
